# Some of the results follow. These are noisy estimates, calculated here from bound and input reads.
# Biological target: T1, Pho4 (S. cerevisiae) (UniProt P07270)
# T1 sequence: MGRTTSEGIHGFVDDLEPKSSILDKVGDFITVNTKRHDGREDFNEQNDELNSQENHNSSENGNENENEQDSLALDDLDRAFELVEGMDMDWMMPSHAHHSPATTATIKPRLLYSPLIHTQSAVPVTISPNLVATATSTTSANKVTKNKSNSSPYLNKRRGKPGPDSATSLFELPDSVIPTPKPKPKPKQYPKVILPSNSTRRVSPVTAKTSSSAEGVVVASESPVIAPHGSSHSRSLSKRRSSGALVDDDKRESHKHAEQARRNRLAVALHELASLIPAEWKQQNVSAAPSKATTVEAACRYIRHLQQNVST
# Test: relative binding free energy (BET-seq); higher = weaker binding
# Settings: reference: library average
row,Sequence,relative binding free energy [kcal/mol]
1,AGTCACACGTGTTTGT,0.04
2,TAAATCACGTGGGCTA,0.07
3,GTGGACACGTGAGGAG,0.33
4,GTTTTCACGTGTACGG,0.19
5,TTTAGCACGTGTGGCA,0.02
6,TGGGGCACGTGTTGCC,-0.17
7,TTTCTCACGTGTTGTA,0.08
8,TGGTGCACGTGGCGCT,-0.13
9,GGATACACGTGTAGAT,0.33
10,GTGATCACGTGAGGGG,0.36
11,TCGTGCACGTGGGCAG,-0.16
12,GAGGGCACGTGGGATG,-0.08
13,TTTAGCACGTGGAGAT,-0.02
14,AGGTGCACGTGTGGCA,-0.03
15,TGGGACACGTGTTTCA,0.04
16,TCTTACACGTGTTTAT,0.1
17,AAGAACACGTGGGTAT,-0.09
18,CGTATCACGTGGGGGG,-0.02
19,TTAAACACGTGAGTAT,0.27
20,GGTTGCACGTGGCGGT,-0.06
21,TTACGCACGTGGCGTG,-0.2
22,ATGGTCACGTGATAGT,0.14
23,ATAGTCACGTGCAAGG,0.07

row,Sequence,relative binding free energy [kcal/mol]
1,AGTGGCACGTGACGTG,0.03
2,CGGGGCACGTGATGAT,0.02
3,AGTTCCACGTGTGGGA,0.03
4,AGATTCACGTGGTTGA,0.25
5,GATAACACGTGGTTTG,0.08
6,TTATGCACGTGTGTGG,0.02
7,GGATTCACGTGTATGT,0.37
8,GTTGTCACGTGGCTGC,0.07
9,GCGTGCACGTGGATAG,0.2
10,GTGTACACGTGATGGT,0.4
11,AGTGCCACGTGAAGTG,0.2
12,TTATTCACGTGCAGTA,0.19
13,ATGAACACGTGTGTAT,0
14,TAGATCACGTGTTGCG,0.03
15,CTTTGCACGTGGTTCT,-0.12
16,TTGTACACGTGAATAG,0.3
17,TGGGGCACGTGAAGCA,0.07
18,GTGGGCACGTGTTTGA,-0.1
19,AGATTCACGTGAATGG,0.42
20,TTATTCACGTGAGAGT,0.41
21,TATAACACGTGTAATT,-0.02
22,ATTGACACGTGGATGT,-0.03
23,ATTCACACGTGCGGGT,0.07

row,Sequence,relative binding free energy [kcal/mol]
1,ATTTTCACGTGTGACT,0.32
2,ATGTTCACGTGCATGG,0.12
3,GGTGTCACGTGAGCTA,0.31
4,GGAGGCACGTGAATGA,0.28
5,ATTGTCACGTGCGCAG,0.03
6,GTTTCCACGTGTAAGT,0.23
7,CGTGTCACGTGAGAGT,0.14
8,TAAGGCACGTGTATTT,-0.09
9,GGTGGCACGTGTGGAG,0.12
10,AATCTCACGTGTGTAG,0.35
11,GGAGTCACGTGCCGTG,0.11
12,GGGGACACGTGCGAGG,-0.14
13,GTAGACACGTGGCGTT,0.07
14,GAAGGCACGTGTGGGT,-0.02
15,AAAAGCACGTGGGGTG,-0.22
16,TTCTACACGTGGCGTG,0.07
17,GGGCACACGTGCGAGG,0.12
18,GTAGCCACGTGGATGG,-0.03
19,GTGCGCACGTGGCTGG,-0.19
20,GGAGACACGTGTGGAT,0.07
21,AGGTGCACGTGCGATT,-0.04
22,TGTAGCACGTGAACGT,0.22
23,CTAAACACGTGGGGGG,-0.13

row,Sequence,relative binding free energy [kcal/mol]
1,TGTCGCACGTGGCATG,-0.21
2,TGTGCCACGTGCGGCG,-0.06
3,TTTTACACGTGATGTT,0.17
4,TAGGGCACGTGGCTTA,-0.12
5,ATGGTCACGTGTGGGC,0.19
6,TGGTGCACGTGGATGA,0.02
7,TTCTACACGTGAAGTT,0.24
8,AATGTCACGTGGGCAT,-0.12
9,GGTGTCACGTGTACAG,0.19
10,ATGTACACGTGGATGC,0
11,CTTATCACGTGTAGTG,0.18
12,AGGAGCACGTGGCGGT,-0.18
13,CGTAGCACGTGAAGGT,0.1
14,TATCTCACGTGTTGTA,0.26
15,ATGAACACGTGGGCGG,-0.27
16,GTTCTCACGTGTGTAG,0.27
17,TGTATCACGTGAGTTC,0.43
18,CGAGTCACGTGAGGCG,0.28
19,TTAATCACGTGTAGCG,0.19
20,TCTGACACGTGAGATT,0.41
21,TGTGACACGTGGGGTC,-0.03
22,CGTGACACGTGTTGTT,0.01
23,GGGGTCACGTGCGGCT,0.11

row,Sequence,relative binding free energy [kcal/mol]
1,CTTGCCACGTGGTATT,-0.06
2,TGGGACACGTGGCGGG,0.02
3,TGAGGCACGTGATGTA,-0.13
4,TCTCGCACGTGTGGGG,0.01
5,TGGTGCACGTGTTGTT,0
6,CTGGACACGTGGGAGG,-0.15
7,TACTACACGTGAGGTT,0.28
8,GACTTCACGTGGTGTA,0.2
9,TTTGGCACGTGACGTT,0
10,TGGTCCACGTGTTAAA,0.21
11,TTGAACACGTGTGTGT,0.14
12,TGGTGCACGTGGCCAT,-0.08
13,AAATTCACGTGGTATT,0.21
14,CTGTTCACGTGAGGTA,0.33
15,ATTATCACGTGGGGTC,-0.06
16,GGGAGCACGTGTATTT,0.06
17,TTCATCACGTGAAATG,0.38
18,AGCATCACGTGAGTTG,0.31
19,ATAGGCACGTGGGTTC,-0.22
20,TTAATCACGTGTGATT,0.31
21,ATCTGCACGTGAGGTG,0.32
22,ATGGTCACGTGTGAAC,0.18
23,CAGTACACGTGTAGGG,0.13
